This is an account of results in PubChem BioAssay AID1745853 (National Center for Advancing Translational Sciences (NCATS), 2022).

Assay in all cases: Primary Screen for Target Class Profiling of Small Molecule Inhibitors of Methyltransferases
In assay [1] the target is Glycine N-methyltransferase (Homo sapiens) (UniProt Q14749). The settings on record: purified enzyme, MTase-Glo SAH luminescence; measured here: GNMT inhibition; at 40 µM; stronger effect = lower value. The method, boiled down: (§1)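 Each enzyme was assayed with SAM and its substrate. SAH formation detected by MTase-Glo luminescence; single-point 40 uM screen[…].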

For assay [2], the target named is Guanidinoacetate N-methyltransferase (Homo sapiens) (UniProt Q14353). The settings on record: purified enzyme, MTase-Glo SAH luminescence; measured here: GAMT inhibition; at 40 µM; stronger effect = lower value. The method, boiled down: as §1
Assay [3] deals with Histamine N-methyltransferase (Homo sapiens) (UniProt P50135). The settings on record: purified enzyme, MTase-Glo SAH luminescence; measured here: HNMT inhibition; at 40 µM; stronger effect = lower value. The method, boiled down: as §1
For assay [4], the target named is Nicotinamide N-methyltransferase (Homo sapiens) (UniProt P40261). Particulars: purified enzyme, MTase-Glo SAH luminescence; measured here: NNMT inhibition; at 40 µM; stronger effect = lower value. Summed up:
as §1

For assay [5], the target named is Phenylethanolamine N-methyltransferase (Homo sapiens) (UniProt P11086). Particulars: purified enzyme, MTase-Glo SAH luminescence; measured here: PNMT inhibition; at 40 µM; stronger effect = lower value. The method, boiled down:
as §1

“And” between values parts separate entries of the source, which are not always exact repeats. Equal entries are not always repeated. The list shows a part of the results. These are further read-outs of the screen, such as a control signal, another cell line or another target. No call is given for them.
% is scaled to controls: 0 for no effect and ±100 for the full control effect.

As for `CC[C@@]1(O)C(=O)OCc2c1cc1n(c2=O)Cc2cc3ccccc3nc2-1`, the activity change, negative = inhibition in assay [1] is -11.7%; in assay [2], 8.43%; in assay [3] it was 7.75%; in assay [4], -8.91%; in assay [5], -0.98%.

Consider `CO/C1=C\C(C)=C\[C@@H](C)[C@@H](O)[C@@H](C)C/C(C)=C/C=C/[C@H](OC)[C@@H]([C@@H](C)[C@@H](O)[C@H](C)[C@@]2(O)C[C@@H](O)[C@H](C)[C@@H](C(C)C)O2)OC1=O`, for which the activity change, negative = inhibition came to 2.56% in assay [1] and 10.7% in assay [3].

`O=C(Nc1ccc(Br)cc1)N1Cc2ccccc2-n2cccc2C1c1cccs1` (configuration not stated): the activity change, negative = inhibition in assay [1] came out at 12.7%; in assay [2], 1.3%; in assay [3], 6.61%; in assay [4] it was 1.06%; in assay [5], 6.78%.

Turning to `N#C/C(=C/c1ccc(O)c(O)c1)C(N)=S`, the activity change, negative = inhibition in assay [1] was -66.3%; in assay [2], 4.33%; in assay [3], 4.05%; in assay [4], -10.6%; in assay [5], -3.05%.

Regarding `Cc1ccc(NC(=O)N2Cc3ccccc3-n3cccc3C2c2ccc(N(C)C)cc2)c(C)c1` (configuration not stated), the activity change, negative = inhibition was 7.25% in assay [1]; 2.09% in assay [2]; 4.08% in assay [3]; 2.24% in assay [4]; -10.7% in assay [5].

Turning to `CCCC[N+]1(C)[C@@H]2CC(OC(=O)[C@H](CO)c3ccccc3)C[C@H]1[C@@H]1O[C@@H]12` (some centres not stated), the activity change, negative = inhibition in assay [1] is 1.56%; in assay [2], 0.638%; in assay [3], 3.93%; in assay [4], -8.55%; in assay [5] it was -4.35%.

Turning to `CC(C)CC(=O)N1CC[C@@H]2COCCN(C)[C@@H]2C1`, the activity change, negative = inhibition in assay [1] was -3.02%; in assay [2], -7.95%; in assay [3], -1.71%; in assay [4], -7.86%; in assay [5], -7.03%.

For `CN1C2CCC1CC(OC(=O)N1Cc3ccccc3NC1=O)C2` (configuration not stated), the activity change, negative = inhibition in assay [1] was -1.22%; in assay [2] it was 6.9%; in assay [3], 10.6%; in assay [4], -6.84%; in assay [5] it was 4.59%.

Take `C[C@H]1C2Cc3ccc(O)cc3[C@@]1(C)CCN2CC1CC1`: the activity change, negative = inhibition in assay [1] was 5.06%; in assay [2], 9.95%; in assay [3], -40.5%; in assay [4] it was -4.56%; in assay [5], 5.42%.

On to `Cc1cccc(NC(=O)N2Cc3ccccc3-n3cccc3C2c2cccc(C)c2)c1` (configuration not stated), for which the activity change, negative = inhibition in assay [1] is 5.52%; in assay [2], 8.01%; in assay [3], 4.4%; in assay [4], 2.57%; in assay [5], 2.32%.

Regarding `CSc1ccc(C2c3cccn3-c3ccccc3CN2C(=O)Nc2ccc(C)cc2Cl)cc1` (configuration not stated), the activity change, negative = inhibition in assay [1] was 1.1%; in assay [2] it was 0%; in assay [3], 0.552%; in assay [4] it was -0.327%; in assay [5] it was 4.67%.

On to `Cc1ccc(NC(=O)N2Cc3ccccc3-n3cccc3C2c2ccc(Cl)cc2)c(C)c1` (configuration not stated), for which the activity change, negative = inhibition was -0.85% in assay [1]; 1.71% in assay [2]; 4.2% in assay [3]; 8.13% in assay [4]; 9.01% in assay [5].

With `CCC(C)/C=C(C)/C=C/C1=CC2=C(Cl)C(=O)C(C)(OC(C)=O)C(=O)C2=CO1` (configuration not stated), the activity change, negative = inhibition is -39.3% in assay [1]; -3.73% in assay [2]; -9.28% in assay [3]; -19.4% in assay [4]; -4.6% in assay [5].

For the molecule `CCOC(=O)c1ccc(NC(=O)N2Cc3ccccc3-n3cccc3C2C)cc1` (configuration not stated), the activity change, negative = inhibition in assay [1] amounted to 7.04%; in assay [2] it was 0.289%; in assay [3] it was 2.24%; in assay [4] it was 1.16%; in assay [5], 4.07%.

Consider `CC1CCCC(O)CC(=O)Cc2cc(O)cc(O)c2C(=O)O1` (configuration not stated), for which the activity change, negative = inhibition in assay [1] was 5.62%; in assay [2], 5.61%; in assay [3] it was 5.9%; in assay [4], -5.58%; in assay [5], 2.88%.

Consider `COc1ccc(C(C)(C)C)cc1CN[C@H]1C2CCN(CC2)[C@H]1C(c1ccccc1)c1ccccc1`, for which the activity change, negative = inhibition in assay [1] is -1%; in assay [2] it was 4.26%; in assay [3], -2.54%; in assay [4], -21.2%; in assay [5] it was -11.2%.

For the molecule `CCOCCCNC(=O)N1Cc2ccccc2-n2cccc2C1CC` (configuration not stated), the activity change, negative = inhibition was -0.887% in assay [1]; -1.75% in assay [2]; 2.34% in assay [3]; -2.88% in assay [4]; 7.1% in assay [5].

Take `CSc1ccc(C2c3cccn3-c3ccccc3CN2C(=O)NCc2ccc(F)cc2)cc1` (configuration not stated): the activity change, negative = inhibition is -5.55% in assay [1]; 4.28% in assay [2]; -6.61% in assay [3]; -10.2% in assay [4]; -1.18% in assay [5].

In the case of `C[C@]12Cc3cn4c(nc3C=C1CCC1C2CC[C@@]2(C)[C@H]1CC[C@@]2(O)C#N)nc1ccccc14` (some centres not stated), the activity change, negative = inhibition was -37.7% in assay [1]; 8.67% in assay [2]; -4.6% in assay [3]; -8.31% in assay [4]; -3.56% in assay [5].

`CC12CCC3C(CCC4(O)CC(O)CCC34C=O)C1(O)CCC2C1=CC(=O)OC1` (configuration not stated): the activity change, negative = inhibition in assay [1] is 2.98%; in assay [2], 0.143%; in assay [3], 11.6%; in assay [4] it was -6.2%; in assay [5] it was 6.08%.

As for `COc1ccc(Cl)cc1NC(=O)N1Cc2ccccc2-n2cccc2C1C` (configuration not stated), the activity change, negative = inhibition is 5.5% in assay [1]; 1.57% in assay [2]; -0.027% in assay [3]; -5% in assay [4]; 1.09% in assay [5].

In the case of `COc1ccc(NC(=O)N2Cc3ccccc3-n3cccc3C2c2cccc(Cl)c2)c(OC)c1` (configuration not stated), the activity change, negative = inhibition in assay [1] was determined as 8.64%; in assay [2] it was 1.13%; in assay [3], 3.31%; in assay [4], 2.06%; in assay [5] it was 4.33%.

In the case of `CCNC(=O)C[C@@H]1N=C(c2ccc(Cl)cc2)c2cc(OC)ccc2-n2c(C)nnc21`, the activity change, negative = inhibition in assay [1] is 2.39%; in assay [2] it was 0.252% and 2.65%; in assay [3], 6.77%; in assay [4] it was -15% and -15.2%; in assay [5] it was -4.53% and 4.89%.

For `CCc1ccc(NC(=O)N2Cc3ccccc3-n3cccc3C2c2ccccc2C)cc1` (configuration not stated), the activity change, negative = inhibition worked out at 12.4% in assay [1]; 0% in assay [2]; 10.3% in assay [3]; 10.1% in assay [4]; 6.22% in assay [5].

`O=C(Nc1ccc2n(c1=O)C[C@H]1C[C@@H]2CN(C(=O)c2ccccn2)C1)C1CCCCC1`: the activity change, negative = inhibition in assay [1] was -7.68%; in assay [2] it was -7.82%; in assay [3], -2.14%; in assay [4], -16.7%; in assay [5] it was 0.525%.

Turning to `CCC(C)(O)C1(C(=O)O)COC(=O)C1` (configuration not stated), the activity change, negative = inhibition was 2.9% in assay [1]; 4.37% in assay [2]; 12.8% in assay [3]; -8.25% in assay [4]; 5.31% in assay [5].

`CN(C)C(=O)CC1CCOC2(CCNCC2)C1` (configuration not stated): the activity change, negative = inhibition is -5.08% in assay [1]; -9.42% in assay [2]; -2.54% in assay [3]; -14.4% in assay [4]; 4.04% in assay [5].

With `O=C(NCc1ccc(F)cc1)N1Cc2ccccc2-n2cccc2C1c1cc(F)cc(F)c1` (configuration not stated), the activity change, negative = inhibition is 9.58% in assay [1]; 0.827% in assay [2]; 3.03% in assay [3]; 2.3% in assay [4]; 5.24% in assay [5].

Take `COc1ccc(OC)c(NC(=O)N2Cc3ccccc3-n3cccc3C2c2ccc(C(C)C)cc2)c1` (configuration not stated): the activity change, negative = inhibition in assay [1] was -2.05%; in assay [2] it was 2.02%; in assay [3], -8.25%; in assay [4], -6.81%; in assay [5], -1.1%.

As to `O=C(Nc1cccc(Br)c1)N1Cc2ccccc2-n2cccc2C1c1cccs1` (configuration not stated), the activity change, negative = inhibition in assay [1] amounted to 6.06%; in assay [2] it was 1.74%; in assay [3] it was 4.05%; in assay [4], 1.97%; in assay [5] it was 4.28%.
